For 67 compounds, TGI and GI50 results are on record in PubChem BioAssay (NCI).

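Assay format: 96-well plates, 48-hour exposure. GI50 is the concentration that inhibits growth by half. TGI marks complete inhibition of growth.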 Peptide text beside a SMILES is read from it. * marks the point of attachment. Trt = c1ccc(C(c2ccccc2)(c2ccccc2)*)cc1; Cbz = O=C(OCc1ccccc1)*

The test system of this assay is NCI-H322M lung. Nature of the assay: growth of human tumour cells (NCI), 48 h.
Regarding `CC(=O)Nc1ccc(-c2nnc(SCC(=O)Nc3ccc(Cl)cc3)o2)cc1`, the TGI was determined as 29.6 µM.
Turning to `O=S(=O)(O)c1ccc2c(N=Nc3ccc(Sc4ccc(N=Nc5c(O)ccc6cc(S(=O)(=O)O)ccc56)cc4)cc3)c(O)ccc2c1`, the TGI is more than 100 µM.
For the compound `C=CC[C@H](N=C(SC)SC)C(=O)N1C(=O)N(C)[C@@H](C)[C@H]1c1ccccc1`, the TGI was more than 100 µM.
For the compound `Nc1nc(N)c2c(n1)NC(c1sc(Cl)nc1Cl)CC(c1ccc3c(c1)OCO3)=N2` (configuration not stated), the GI50 is 14.9 µM and the TGI is more than 100 µM.
`Cc1ccc(S[C@@H](C)[C@@](O)(C(N)=O)c2ccccc2)cc1`: the TGI was more than 100 µM.
`Cc1c(O)c(=O)ccn1CCc1ccc(O)cc1` returned a TGI of more than 100 µM.
The same measure, in the same setting: then `Cc1cc(Br)cc(C)c1NC(=O)C(=O)Nn1c(=S)[nH]c2ccccc2c1=O`, with more than 100 µM.
As for `Oc1ccc(Cl)cc1/C=N\NC(=S)N/N=C/c1cc(Cl)ccc1O`, the GI50 is 1.69 µM and the TGI was more than 100 µM.
`CC(=O)NC(CCCN(Cc1ccccc1)C(=O)N(C)N=O)C(=O)NCc1ccccc1` (configuration not stated): the TGI was more than 100 µM.
`COC(=O)/C(=N\Nc1nnc(C)n1N)C(C#N)c1ccccc1` (configuration not stated) yielded a TGI of more than 100 µM.
In the case of `O=C(Nc1cccc(C(F)(F)F)c1)c1cc2ccccc2cc1O`, the GI50 was 2.43 µM and the TGI is more than 26.1 µM.
`N#Cc1nc(-c2cccc(-c3nc(C#N)c(N)o3)n2)oc1N` displayed a TGI of more than 100 µM.
On to `CCN(CC)CCO[Si](OCCN(CC)CC)(OCCN(CC)CC)OCCN(CC)CC`, for which the TGI is more than 100 µM.
Still for that read-out and setting: then `Cc1cc(=O)oc2c(CNC(CC(C)C)C(=O)O)c(O)ccc12` (configuration not stated), with more than 100 µM; and `CC(C)(C)Sc1nnc(SC(C)(C)C)c2c(=O)[nH]nc(SC(C)(C)C)c12`, with 25 µM.
`O=C(/C=C/c1ccc([N+](=O)[O-])cc1)c1cccc(Nc2nc(Nc3ccccc3)nc(Nc3ccccc3)n2)c1`: the GI50 is more than 100 µM and the TGI was more than 100 µM.
For `CCN(CC)Cc1cc(Nc2c3ccccc3nc3cc(Cl)ccc23)ccc1O`, the GI50 was 2.07 µM and the TGI was 5.62 µM.
For `C/C(=N\NS(=O)(=O)c1ccc([N+](=O)[O-])cc1)c1ccc[n+]([O-])n1`, the TGI is 19.8 µM.
`NC(=O)Oc1ccccc1` displayed a TGI of more than 100 µM.
As for `CC(=O)OCC1OC(n2c(-c3ccccc3)c(N=Nc3ccc(C)cc3)c(C)c(C#N)c2=S)C(OC(C)=O)C(OC(C)=O)C1OC(C)=O` (configuration not stated), the TGI is more than 100 µM.
Consider `CN(C)CCCNC(=O)c1cn2c(ccc3sc4ccccc4c(=O)c32)n1`, for which the TGI amounted to 21.5 µM.
The compound `CCOC(=O)c1cc(Br)c(-c2cc(C)co2)[nH]1` gave a TGI of more than 100 µM.
On the same count and under the same terms, then `O=C(O)c1ccc(N/C(=C(/C(Cl)=C(Cl)Cl)[N+](=O)[O-])n2nnc3ccccc32)cc1`, with more than 100 µM.
Take `Cc1ccc(-c2n[nH]c(=O)c3noc(-c4ccc(C)cc4)c23)cc1`: the GI50 was 5.06 µM and the TGI amounted to 36.8 µM.
As for `O=C(Nc1ccc2ccccc2c1)c1cc2cc(CCl)ccc2oc1=O`, the TGI was more than 100 µM.
Take `CC(C)N1C(C)[C@@H](c2ccccc2)O[P@]1(=O)CC1=CCCCC1` (some centres not stated): the TGI is more than 100 µM.
Still for that read-out and setting: then `CCCCCCCCCCCCCCCCCC(=O)NCC(COP(=O)(O)O)OCC` (configuration not stated), with more than 100 µM; and `CC/C(N)=N\NC(=O)OC(C)(C)C`, with more than 100 µM; and `COc1ccc2c(c1)CCC/C2=N\NS(=O)(=O)c1c(C)cc(C)cc1C`, with more than 100 µM.
On to `Cc1ccc(S(=O)(=O)NC(CO)C(=O)O)cc1` (configuration not stated), for which the TGI was more than 100 µM.
Take `O=c1[nH]nc(-c2ccccc2)n1-n1cnnc1`: the TGI is more than 100 µM.
As to `COc1cc(Cn2c(-c3ccccc3)cc3c2-c2oncc2CC3)cc(OC)c1`, the GI50 is 0.336 µM and the TGI is more than 100 µM.
Regarding `Cc1ccc(NC(=O)CC(=O)n2nc(C)c(N=Nc3cccc(C)c3)c2C)cc1`, the TGI was more than 100 µM.
The compound `COc1cc(-c2cc(=O)c3c(O)c(OC)c(OC)c(OC)c3o2)cc(OC)c1OC` registered a TGI of more than 100 µM.
The compound `C/C(CC(=O)Nc1cccc([N+](=O)[O-])c1)=N\NC(=O)CC#N` displayed a TGI of more than 100 µM.
On the same count and under the same terms, the value for `Cn1cc(NC(=O)Nc2cc(C(=O)Nc3cc(C(=O)Nc4cc(S(=O)(=O)O)c5cc(S(=O)(=O)O)cc(S(=O)(=O)O)c5c4)n(C)c3)n(C)c2)cc1C(=O)Nc1cc(C(=O)Nc2cc(S(=O)(=O)O)c3cc(S(=O)(=O)O)cc(S(=O)(=O)O)c3c2)n(C)c1` was more than 100 µM.
Consider `CC(C)C(NC(=O)C(Cc1ccccc1)NC(=O)[C@H]1CCC[C@H]1NC(=O)C(Cc1ccc(OC(C)(C)C)cc1)NC(=O)OC(C)(C)C)C(N)=O` (some centres not stated), for which the TGI is more than 100 µM.
`O=S(=O)(O)SCCNCCCCCC1CCCCC1` returned a TGI of 23.6 µM.
In the case of `Cc1c(Cl)c(C)c(Cc2c(C)c(Cl)c(C)c(Cl)c2O)c(O)c1Cl`, the GI50 is 3.56 µM and the TGI came to 12.3 µM.
Take `O=C1C(c2c(O)[nH]c3ccc(S(=O)(=O)NCCO)cc23)=Nc2ccccc21`: the TGI was 97.6 µM.
Turning to `CNC(c1ccncc1)C(NC)c1ccncc1` (configuration not stated), the TGI was more than 100 µM.
`Cc1noc(/N=C2\C=C(Nc3onc(C)c3C)C(=O)c3ccccc32)c1C` showed a TGI of more than 100 µM.
For the compound `O=Cc1ccc(N2CCN(c3ccc(C=O)cc3)CC2)cc1`, the GI50 is more than 100 µM and the TGI was more than 100 µM.
The compound `NNC(=O)C(O)C(O)C(=O)NN` (configuration not stated) displayed a TGI of more than 100 µM.
For the compound `Cc1ccc(/C=C2\N=C(N3CCCC(CO)C3)NC2=O)cc1` (configuration not stated), the TGI is more than 100 µM.
As for `Cc1cc2nc3c4ccc(Br)cc4n(CCN(C)C)c3nc2cc1C`, the GI50 is 1.6 µM and the TGI is 6.37 µM.
`Nc1ccn(C2OC(C(OC3OC(CO)C(O)C(N)C3O)C(O)C(O)C(O)C(O)CO)C(N)C(O)C2O)c(=O)n1` (configuration not stated) had a TGI of more than 100 µM.
The compound `CCCCCCCCCCCCCCCC1(OC)C[N+](C)(C)CCO1` (configuration not stated) displayed a TGI of 33.9 µM.
Still for that read-out and setting: then `CCCOC(=O)C1C2CCC(O2)C1C(=O)O` (configuration not stated), with more than 100 µM.
For the compound `O=C(c1ccc2ccccc2c1)c1c(C(F)(F)F)n([O-])c2ccc(F)cc2[n+]1=O`, the GI50 was 2.02 µM and the TGI was found to be 4.54 µM.
In turn, `O=C1C=Cc2ncccc2C1=O` gave a TGI of more than 52.5 µM.
As for `COc1ccc(NC(=O)C2C(=O)N(c3ccc(OC)cc3)C(=O)/C2=N\NC(N)=O)cc1` (configuration not stated), the TGI was more than 100 µM.
With `CC(=O)[C-](C(C)=O)c1ccccc1.CC(=O)[C-](C(C)=O)c1ccccc1.CC(=O)[C-](C(C)=O)c1ccccc1.[Cl-].[Zr+4]`, the GI50 is more than 100 µM and the TGI was more than 100 µM.
For the compound `CCCCCCCCCCCCO[P+](=O)OCCCCCCCCCCCC`, the TGI is more than 100 µM.
Compound `N#Cc1nc(/C=C/c2cccnc2)oc1N` displayed a TGI of more than 100 µM.
Still for that read-out and setting: then `O=S(=O)(O)c1cc(S(=O)(=O)O)c2c(N=Nc3ccc(N=Nc4ccccc4)cc3)c(O)ccc2c1`, with more than 100 µM.
For the compound `CC(/C=N/N=C(N)N)=N\N=C(N)N`, the GI50 is 13 µM and the TGI worked out at 122 µM.
With `O=C(Cc1ccccc1)NN1C(=O)/C(=C\c2ccccc2O)SC1=Nc1ccccc1`, the TGI was more than 100 µM.
Consider `CC1=C(N2CC2)C(=O)c2ccccc2C1=O`, for which the TGI worked out at 4.92 µM.
Turning to `Cc1ccc(/C=C2/N=C(N/N=C\c3ccccc3)NC2=O)cc1`, the TGI is more than 100 µM.
Same read-out and setting: then `O=c1[nH]c2ccc([N+](=O)[O-])cc2nc1/C=C(\O)c1ccccc1`, with 52.7 µM.
In turn, `CCCCNC1=C(C(=O)OCC)/C(=N/NC(=O)c2ccccc2O)CO1` displayed a TGI of more than 100 µM.
`CC1OC(=O)C(C(C)C)NC(=O)C(C(C)C)OC(=O)C(C(C)C)NC(=O)C(C)OC(=O)C(C(C)C)NC(=O)C(C(C)C)OC(=O)C(C(C)C)NC(=O)C(C)OC(=O)C(C(C)C)NC(=O)C(C(C)C)OC(=O)C(C(C)C)NC1=O` (configuration not stated) had a TGI of 0.717 µM.
For `COc1ccc(C(=O)c2cc3c(N)c(C(=O)Nc4cccc(OC)c4)sc3nc2C)cc1`, the GI50 was 0.853 µM and the TGI was more than 100 µM.
As for `COC(=O)C(CSC(c1ccccc1)(c1ccccc1)c1ccccc1)NC(=O)C(CC(N)=O)NC(=O)OCc1ccccc1` (stereo not drawn) (Cbz-Asn-Cys(Trt)-OMe; configuration not given here), the GI50 was 3.84 µM and the TGI was determined as 25.5 µM.
The compound `CN1CN(C(=O)N2CN(C)C(=O)N(C)C2)CN(C)C1=O` yielded a TGI of more than 100 µM.
In turn, `O=C1CCC(=O)c2sccc2N1` displayed a TGI of more than 100 µM.
